Laboratory results as given in PubChem BioAssay AID1347120 (National Center for Advancing Translational Sciences (NCATS), 2019).
Where “and” joins values, the source holds several entries; their conditions need not be identical. Equal values may be shown once. Hit rate of the full screen: of about 390,000 compounds, about 930 (0.24%) were called active. The inconclusive results got no clear call from the source; some entries with a clear call stand among them for comparison. The call rests on the fitted dose curve; in most records, active means well fitted activation curve with a large enough effect; inconclusive means small, poorly fitted or top-dose-only effect; inactive means no such curve, though single readings can be large or run the other way. A potency beside an inconclusive call is a rough fit, not a confirmed value.

Experiment: qHTS for Suppressors of FUS Proteinopathy: Primary screen using FUS-linked yeast assay; further: nearly all actives have a fitted effect of over 55% in size;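 on growth rescue (activation): plate controls were DMSO vehicle for no effect and reference control for full effect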
Details: S. cerevisiae FUS-expressing, OD600, 24 h; Potency: growth rescue; growth rescue (activation): at 76.6 µM (top of the series)
How it was run: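 Compound concentration series was pinned onto galactose-induced FUS-expressing yeast seeded at OD 0.005. Plates sat 24hr at 30C; absorbance at 600 nm gave growth. DMSO served as background control.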
Potency means the concentration at half of the fitted maximal effect; tags describe the fitted curve by direction and shape.

SMILES	growth rescue (activation)	Potency
Brc1ccc(CSc2ccc3nnc(-c4ccccn4)n3n2)cc1	inactive: 8.3%	–
O=C(Nc1ccccc1Cl)c1cc(C2CCCN(C(=O)c3ccc4c(c3)CCO4)C2)on1 (stereo not given)	–	inconclusive: 28.2 µM [activator, single point]
COc1ccc(N(C(=O)c2cnccn2)C(C(=O)NC2CCCCC2)c2ccccc2)cc1 (stereo not given)	–	inconclusive: 22.4 µM [activator, partial curve, poor fit]
CCCC[C@@H]1C(=O)N2N=Cc3cc4ccccc4cc3[C@H]2N2N=Cc3cc4ccccc4cc3[C@@H]12	–	inconclusive: 20 µM [activator, partial curve, poor fit]
Cc1cccc(C)c1NC(=O)C1CCCN(S(=O)(=O)c2c(C)noc2/C=C/N(C)C)C1 (stereo not given)	–	inconclusive: 50.1 µM [activator, single point]
CCc1cc(-c2cnnn2Cc2ccccc2)ccc1-c1cn(CC(C)C)nn1	–	inconclusive: 15.8 µM [activator, partial curve, poor fit]
COc1ccc(NC(=O)Nc2ccc3c(c2)C(=O)N([C@H](C)CO)C[C@H](C)[C@@H](CN(C)S(=O)(=O)c2ccc(F)cc2)O3)cc1	–	inconclusive: 50.1 µM [activator, single point]
O=C(c1cc(-c2ccncc2)nc2ccc(Br)cc12)N1CCN(Cc2ccc3c(c2)OCO3)CC1	inactive: -5.04%	–
C#CCOCCOCCOCCNc1nc(N2CCN(C(=O)CCCCCCCCCCNC(=O)[C@@H](CCC(=O)O)n3cc(CCCCCN)nn3)CC2)nc(N2CCN(C(=O)CCCCCCCCCCNC(=O)[C@H](CO)n3cc(CCCSC)nn3)CC2)n1	–	inconclusive: 3.55 µM [activator, partial curve, poor fit]
Cn1c(=O)n(C)c2cc(NS(=O)(=O)c3ccc4c(c3)CCCC4)ccc21	–	inconclusive: 0.794 µM [activator, full curve, poor fit]
COc1ccc(-n2ncc(C(=O)Nc3ccc(C)cc3Cl)c2C2CCN(C(=O)OC(C)(C)C)CC2)cc1	–	inconclusive: 17.8 µM [activator, partial curve, poor fit]
COc1cccc(-c2ncc3ccccc3c2COC(=O)c2cccs2)c1	inactive: 7.75%	–
CCC(C)(C)n1nnnc1C(c1cccnc1)N1CCN(c2cccc(C(F)(F)F)c2)CC1 (stereo not given)	–	inconclusive: 50.1 µM [activator, single point]
COc1ccc(NC(=O)Nc2cccc3c2O[C@H](CN(C)S(=O)(=O)c2ccc(OC)cc2)[C@@H](C)CN([C@H](C)CO)C3=O)cc1	–	inconclusive: 22.4 µM [activator, partial curve, poor fit]
CCOC(=O)/C=c1\s/c(=C\c2ccc(C(F)(F)F)cc2)c(=O)n1CC(=O)NCc1ccco1	–	inconclusive: 12.6 µM [activator, partial curve, poor fit]
CC(C)(C)C(=O)Nc1ccc(S(=O)(=O)Nc2nccs2)cc1	–	inconclusive: 3.98 µM [activator, single point]
O=C(/C=C/c1ccco1)Nc1scc(-c2ccccc2)c1C(=O)O	–	inconclusive: 25.1 µM [activator, partial curve, poor fit]
O=S(=O)(Nc1nc(CN2CCOCC2)nc2sc3c(c12)CCCC3)c1cc(F)ccc1F	–	inconclusive: 44.7 µM [activator, single point]
Cc1ccc(S(=O)(=O)NCc2ccc(C(=O)NC3CCC(C)CC3)cc2)cc1 (stereo not given)	–	inconclusive: 8.91 µM [activator, partial curve]
O=C(CSc1ccccc1)Nc1ccc(N2CCOCC2)cc1	–	inconclusive: 31.6 µM [activator, single point]
CCN(CC)C(=O)[C@H]1C[C@H](CC(=O)NC(C)(C)C)C(=O)N2CCc3c([nH]c4cc(-c5ccco5)ccc34)[C@]12C	–	inconclusive: 50.1 µM [activator, single point]
Cc1cccc(C)c1NC(=O)C(CCc1ccccc1)n1c(=O)c(-c2cc3ccccc3[nH]2)nc2ccccc21 (stereo not given)	–	inconclusive: 7.08 µM [activator, full curve]
COc1ccc(Cl)cc1S(=O)(=O)N1CCN(C(=O)c2cc(-c3ccc(Br)cc3)n[nH]2)CC1	–	inconclusive: 15.8 µM [activator, partial curve]
CC(C)CNC1=CC(=O)CC(c2ccco2)C1 (stereo not given)	inconclusive: 95.6% [activator]	–
COCCn1c(CCC(=O)O)ccc1-c1cccs1	inactive: 46.6%	–
O=C(Nc1ccccc1N1CCOCC1)c1cccc2c(Br)cccc12	–	inconclusive: 50.1 µM [activator, single point]
COc1cccc(/C=C2\CC3(OC(=O)c4ccc(Cl)cc4)CCCN2C3)c1 (stereo not given)	inactive: 21.1%	–
COc1ccc([C@H]2CC(=O)C=C(c3ccc(Cl)cc3C)C2)cc1	–	inconclusive: 31.6 µM [activator, single point]

SMILES	growth rescue (activation)	Potency
Cc1cccc(C(=O)Nc2ccc(C(=O)/C=C/c3cccnc3)cc2)c1	–	inconclusive: 15.8 µM [activator, partial curve]
COc1ccc(C#Cc2ccc3c(c2)O[C@@H](CN(C)C(=O)Nc2cccc(OC)c2)[C@H](C)CN([C@@H](C)CO)S3(=O)=O)cc1	–	inconclusive: 25.1 µM [activator, partial curve, poor fit]
Cc1ccc(CNC(=O)C(C)n2c(=O)cc(-c3ccccc3)c3c(C)nn(C)c32)cc1 (stereo not given)	inactive: 7.95%	–
COc1ccccc1N1CCN(C(=O)c2ccc3c(c2)CCN3S(=O)(=O)c2ccccc2)CC1	–	inconclusive: 31.6 µM [activator, partial curve, poor fit] and inconclusive: 7.94 µM [activator, full curve]
Cc1ccc(SC2=C(Sc3ccc(C)cc3)C(=O)c3ccccc3C2=O)cc1	inactive: 15.8%	–
O=C(CN(C1CC1)S(=O)(=O)c1ccc(S(=O)(=O)NC2CCCCC2)cc1)Nc1ccccc1	–	inconclusive: 50.1 µM [activator, single point]
COc1ccc(S(=O)(=O)N(C)C[C@H]2Oc3ccc(NC(=O)C4CCCCC4)cc3C(=O)N([C@H](C)CO)C[C@@H]2C)cc1	–	inconclusive: 20 µM [activator, partial curve]
COc1ccc(CNC(=O)c2ccc(-c3nc(CS(=O)c4ccc(C)cc4)c(C)o3)cc2)cc1 (stereo not given)	–	active: 25.1 µM
O=C(CN1C(=O)NC(c2ccccc2)(c2ccccc2)C1=O)N1CCN(c2ccc(F)cc2)CC1	–	inconclusive: 31.6 µM [activator, single point]
CCCCC(=O)NC(c1ccc(N(C)C)cc1)c1ccc2cccnc2c1O (stereo not given)	–	inconclusive: 31.6 µM [activator, partial curve, poor fit]
COc1cccc2[nH]c(C(=O)NCc3ccc4c(c3)CCN4C(=O)c3ccc(F)cc3)cc12	–	inconclusive: 17.8 µM [activator, partial curve, poor fit]
Cc1cccc(N2CC(C(=O)Nc3nnc(SCc4ccccn4)s3)CC2=O)c1 (stereo not given)	–	active: 17.8 µM
CC(=O)Nc1ccc(-c2ccnc3c2CC(C)(C(=O)Nc2ccc(Cl)cc2)O3)cc1 (stereo not given)	–	inconclusive: 31.6 µM [activator, single point]
CC(=O)Nc1ccc(NC(=O)C2Cc3ccccc3N2C(=O)c2ccccc2)cc1 (stereo not given)	inactive: 12.7%	–
COc1ccc2[nH]c(=O)c(CN(C(=O)c3ccncc3)C(C)(C)C)cc2c1	–	inconclusive: 0.891 µM [activator, full curve, poor fit]
Cc1ccc(CN2CC(C(=O)N3CCN(c4ccccc4Cl)CC3)CC2=O)cc1 (stereo not given)	inactive: 30.7%	–
CC(C)(C)OC(=O)C[C@H]1C/C=C\C[C@@H](CC(=O)N[C@H](CO)Cc2ccccc2)C(=O)NC[C@H](c2ccccc2)OC1=O	–	inconclusive: 12.6 µM [activator, partial curve, poor fit]
COc1ccc(Cl)cc1C(=O)NCc1nc(-c2cccc(C)c2)no1	inactive: -7.5%	–
CCCCn1c(=O)[nH]c(=O)c2c1nc(-c1ccc(C#N)cc1)n2C1CCCC1	–	inconclusive: 12.6 µM [activator, partial curve]
CCOc1ccc(NC(=O)CN(C)C(=O)c2ccc(OCc3ccccc3)c(OC)c2)cc1OCC	–	inconclusive: 35.5 µM [activator, single point]
COc1ccc(CCNc2cc(C)nc3c(-c4ccccc4)cnn23)cc1OC	–	inconclusive: 6.31 µM [activator, single point]
Cc1ccc(Cl)cc1N1CCN(C(=O)COCc2cc(-c3ccc4c(c3)OCO4)on2)CC1	inactive: 37.9%	–
COc1ccc(S(=O)(=O)N(C)C[C@H]2Oc3ccc(NC(=O)Nc4ccc(C(F)(F)F)cc4)cc3C(=O)N([C@H](C)CO)C[C@@H]2C)cc1	–	inconclusive: 15.8 µM [activator, partial curve]
O=C1NC(Cc2ccc(O)cc2)c2nc3ccc(Br)cc3c(=O)n2-c2cc3ccccc3cc21 (stereo not given)	–	inconclusive: 31.6 µM [activator, single point]
Cc1ccc(S(=O)(=O)N2OC(c3ccccc3)C[C@H]2CC=C(c2ccccc2)c2ccccc2)cc1 (stereo not given in full)	–	inconclusive: 28.2 µM [activator, partial curve, poor fit]
Cc1cccc(NC(=O)CN2CCN(C(=O)c3oc4c(Cl)cccc4c3C)CC2)c1C	–	inconclusive: 35.5 µM [activator, single point]
CC1(C)C(/C=C/C=C/C=C/C=C2\N(CCCCS(=O)(=O)O)c3ccc4ccccc4c3C2(C)C)=[N+](CCCCS(=O)(=O)[O-])c2ccc3ccccc3c21	–	inconclusive: 35.5 µM [activator, single point]
